# Assay results: PubChem BioAssay AID1259400 (National Center for Advancing Translational Sciences (NCATS), 2018)
# In all, about 350,000 compounds went through this assay and about 2,100 (0.6%) were called active. This list was built around the results that the source calls inconclusive (neither active nor inactive); the mix of calls is not that of the screen.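 Rule for the calls: active = activity change of -60% or lower, but not beyond a set lower limit; inconclusive = change between -60% and -40%, or beyond the set limit; inactive = change above -40%.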
# Molecular target: Relaxin receptor 1 (Homo sapiens) (UniProt Q9HBX9)
# UniProt Q9HBX9, sequence (Q9HBX9 whole entry, looked up): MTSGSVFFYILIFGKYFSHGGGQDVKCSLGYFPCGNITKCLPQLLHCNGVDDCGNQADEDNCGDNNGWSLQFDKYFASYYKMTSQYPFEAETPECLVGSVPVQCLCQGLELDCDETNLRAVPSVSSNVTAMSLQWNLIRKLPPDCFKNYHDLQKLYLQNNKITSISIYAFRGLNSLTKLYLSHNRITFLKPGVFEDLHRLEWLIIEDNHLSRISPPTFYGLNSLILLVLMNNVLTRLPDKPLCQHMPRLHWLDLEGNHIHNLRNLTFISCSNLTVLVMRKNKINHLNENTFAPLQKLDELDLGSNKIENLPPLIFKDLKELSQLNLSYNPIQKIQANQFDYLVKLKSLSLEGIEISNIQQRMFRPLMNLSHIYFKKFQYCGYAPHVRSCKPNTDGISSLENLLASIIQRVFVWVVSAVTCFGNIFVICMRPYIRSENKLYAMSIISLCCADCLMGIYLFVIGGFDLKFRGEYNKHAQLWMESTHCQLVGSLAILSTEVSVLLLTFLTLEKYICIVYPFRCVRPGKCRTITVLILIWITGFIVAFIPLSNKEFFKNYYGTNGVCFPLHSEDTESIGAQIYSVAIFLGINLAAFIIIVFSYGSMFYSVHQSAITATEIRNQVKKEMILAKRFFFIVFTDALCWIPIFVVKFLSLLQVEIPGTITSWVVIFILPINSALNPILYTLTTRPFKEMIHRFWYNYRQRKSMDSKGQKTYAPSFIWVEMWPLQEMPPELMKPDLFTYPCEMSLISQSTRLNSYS
# Experiment: qHTS Assay for Antagonists of the Relaxin Receptor RXFP1
# Conditions: HEK293-RXFP1, relaxin-stimulated cAMP HTRF, 30 min; at 57.5 µM; hits give low values
# % is set by controls: 0 for no effect and ±100 for the full control effect.
row,SMILES,"activity change, negative = inhibition"
1,COc1cc2c(cc1OC)C(C)N(C(=O)c1cc3c(C)cc(C)cc3[nH]1)CC2 (centres undefined),inconclusive: -47.9%
2,CCC(=O)N1CCc2cc(S(=O)(=O)CCC(=O)NC3CCCCC3)ccc21,inconclusive: -51.6%
3,C=CCOC(=O)C1=C(C)NC(=O)NC1c1cc2c(cc1Br)OCO2 (centres undefined),inactive: 2.96%
4,CCC(C(=O)NC1CCC(C)CC1)n1nc(C)c2sc3ccccc3c2c1=O (centres undefined),inconclusive: -55.9%
5,Nc1nonc1-n1nnc(C(=O)N/N=C/c2ccc(Br)cc2)c1CSC1=NCCS1,inconclusive: -41.6%
6,COc1ccc(/C=N/N2C(=O)c3ccccc3C2=O)cc1,inactive: -9.64%
7,c1ccc(SSc2ccccn2)nc1,active: -66.5%
8,CCCSc1ncc(Cl)c(C(=O)Nc2c(C(=O)Nc3ccc(OC)cc3)oc3ccccc23)n1,inactive: -0.279%
9,COc1ccc(/C=C2\SC(=S)N(NS(=O)(=O)c3ccc(C)cc3)C2=O)c(OC)c1,inactive: -32.5%
10,FC(F)(F)c1cccc(Nc2nc3nonc3nc2Nc2ccc(Cl)cc2)c1,active: -82.2%
11,O=C(NCCc1c[nH]c2ccccc12)/C(=C\c1ccco1)NC(=O)c1ccco1,inactive: -4.1%
12,CCCCC(O)(c1ccc(CC)cc1)C(CN1CCOCC1)c1ccccc1 (centres undefined),inconclusive: -40.1%
13,CC1CCN(C(=O)CCNS(=O)(=O)c2ccc3c(c2)oc(=O)n3C)CC1,inconclusive: -42.6%
14,COc1ccc(NC(=O)c2ccc3[nH]c(=O)c(=O)[nH]c3c2)c(OC)c1,inactive: -27.5%
15,Cc1nn2c(NC(C)C)c3c(nc2c1-c1ccccc1)CCC3,inconclusive: -42.9%
16,CN(C)c1ccc(C(C#N)c2ccccc2)nn1 (centres undefined),active: -69.5%
17,COc1cc2c(cc1OC)C(SC)=NC1(CCCC1)C2,inconclusive: -54.8%
18,O=C(NCc1cn(-c2ccccc2)nc1-c1ccc(F)cc1)c1cccc([N+](=O)[O-])c1,inconclusive: -48.7%
19,COc1ccc(CCOC(=O)c2ccc(N)c([N+](=O)[O-])c2)cc1,active: -66.4%
20,O=C(Cn1cc(SCc2ccc(Cl)cc2)c2ccccc21)N1CCOCC1,inconclusive: -51.5%
21,COc1cc(C2c3c(-c4cc(C)ccc4O)n[nH]c3C(=O)N2Cc2ccco2)cc(OC)c1OC (centres undefined),inconclusive: -42.9%
22,CCN(CC)CCNC(=O)c1[nH]c2ccc(OCc3ccccc3)cc2c1C,inconclusive: -48.7%
23,COc1ccccc1NC(=O)Nc1nc(CC(=O)Nc2ccc(F)c(F)c2)cs1,inconclusive: -47.6%

row,SMILES,"activity change, negative = inhibition"
1,COc1ccc(/C=C2\SC(=S)N(NS(=O)(=O)c3ccccc3)C2=O)c(OC)c1,active: -68.2%
2,CC(C)C(Cl)=NOC(=O)Nc1ccc(S(N)(=O)=O)cc1,active: -73.3%
3,CC(C)OCCCN1C(=O)c2[nH]nc(-c3ccccc3O)c2C1c1ccccc1F (centres undefined),inconclusive: -55.6%
4,Cc1ccc(-n2c(CCC(=O)O)ccc2-c2cccs2)cc1Cl,inactive: -20.2%
5,CCN(CC)C(=O)c1oc2ccc(S(=O)(=O)N3CCCCCC3)cc2c1C,inactive: -0.548%
6,COc1ccc(C(=O)NC(c2ccccc2Cl)c2cc(Cl)c3cccnc3c2O)cc1 (centres undefined),inconclusive: -43.4%
7,Cc1csc(=O)n1CCC(=O)OCC(=O)c1c(N)n(CC(C)C)c(=O)n(C)c1=O,inactive: -9.52%
8,O=C(COc1ccccc1F)Nc1ccc2nc(SCC(=O)N3CCOCC3)sc2c1,inconclusive: -46.2%
9,c1ccc(-c2nnc(-c3ccncc3)nc2-c2ccccc2)cc1,inconclusive: -40.2%
10,COc1ccc(-c2cn3cc(C)ccc3n2)cc1F,inactive: -18.6%
11,O=C(Nc1ccc(S(=O)(=O)NCc2ccco2)cc1)c1ccncc1,inactive: 17.8%
12,CCOc1ccccc1CNC(=O)c1ccc2nc(N3CCC(C)CC3)sc2c1,inactive: -16.2%
13,Cc1nnc(-c2ccc(Oc3ccc(C)c(C)c3)c([N+](=O)[O-])c2)o1,inconclusive: -42.5%
14,COc1ccc(-c2nc(CSCC(=O)N3CCN(c4ccccc4F)CC3)c(C)o2)cc1,inconclusive: -44.3%
15,COc1cccc(/C=N/n2c(-c3cc(C)[nH]n3)n[nH]c2=S)c1O,inconclusive: -43.7%
16,COc1cccc(-c2nc(-c3ccccn3)no2)c1,inactive: -6.96%
17,COc1ccc(NC(=O)CSc2nnnn2C2CCCC2)cc1,inactive: 2.65%
18,Cc1ccc(Cn2c(/C=C/c3ccco3)nc3ccccc32)cc1,inactive: -23.8%
19,Cn1cc(S(=O)(=O)N2CCCC2)cc1C(=O)NCc1ccccc1Cl,active: -72.5%
20,C=CCn1c(C)nnc1SCC(=O)NC1CCCCC1,inactive: -2.33%
21,Cn1c(SCC(=O)Nc2ccc(Br)cc2)nc(O)cc1=O,inconclusive: -41.4%
22,O=c1[nH][nH]c2cc([N+](=O)[O-])ccc12,inconclusive: -52.1%
23,CCOC(=O)C1CCCN(CCC(=O)Nc2ccc(C)c(C)c2)C1 (centres undefined),inconclusive: -57.2%

row,SMILES,"activity change, negative = inhibition"
1,O=C(COC(=O)CCN1C(=O)/C(=C\C=C\c2ccccc2)SC1=S)Nc1cc(F)ccc1F,inconclusive: -47%
2,Fc1ccc(-n2nnnc2-c2cnc(-c3cccs3)nc2C(F)(F)F)cc1,inconclusive: -54.5%
3,Cc1ccc(C)c(CNC(=O)c2ccc3c(c2)nc2n3CCC(C)C2)c1 (centres undefined),inactive: -35.5%
4,O=C(COc1ccc2ccccc2c1)N1CCN(C(=O)c2ccco2)CC1,active: -84.2%
5,COc1ccc2c(C=Nc3c(C)n(C)n(-c4ccccc4)c3=O)c(O)n(Cc3ccco3)c(=O)c2c1,inactive: 3.86%
6,CCc1ccc(/C=C/C(=O)c2ccc(N3CCOCC3)cc2)cc1,active: -92.1%
7,COc1ccc(N2CCN(C(=O)c3cc4c(C)nc5ccccc5c4o3)CC2)cc1,active: -76.3%
8,CCn1c(C(=O)Nc2c(C)cccc2C)cc2sc(Cl)cc21,inconclusive: -41.5%
9,Cc1ccc(C(=O)N2CCc3ccccc32)cc1,inactive: -31.1%
10,CCc1nnc(SC(CC)C(=O)Nc2ccc(OC)c(Cl)c2)c2cc3occc3n12 (centres undefined),inactive: -18.6%
11,O=C(O)/C=C/c1cn(-c2ccccc2)nc1-c1cc2ccccc2oc1=O,inactive: -3.32%
12,COc1ccc(OC)c(C2C(C(=O)Nc3nc4ccccc4s3)=C(C)NC3=C2C(=O)CCC3)c1 (centres undefined),inactive: -3.5%
13,CC(C)c1ccc2occ(CC(=O)Nc3cccc(C(F)(F)F)c3)c2c1,inconclusive: -43.9%
14,COc1cc(NC(=O)C/C(C)=N/NC(=O)c2cccs2)c(OC)cc1Cl,inconclusive: -41.9%
15,CCC1CN(C(=O)N2CCC(C(=O)NCc3ccco3)CC2)c2cc(C)ccc2O1 (centres undefined),inconclusive: -44.3%
16,C=CC[n+]1c(-c2ccc(Cl)cc2Cl)csc1Nc1c(C)n(C)n(-c2ccccc2)c1=O,active: -67.8%
17,Cc1cc(=O)n(Cc2ccccc2Cl)c2c1c(C)nn2-c1ccccc1,inactive: -14.2%
18,CCCCOc1ccc(-c2n[nH]c(=S)n2Cc2ccccc2)cc1,inconclusive: -53.6%
19,O=C(O)c1ccccc1NS(=O)(=O)c1cccc(-n2sc3ccccc3c2=O)c1,active: -115%
20,CC(=O)c1sc(N/N=C\c2c(O)ccc3ccccc23)nc1C,active: -82.2%
21,CCn1c(C)c(C)c2cc(C(=O)N3CCN(c4cccc(C)c4C)CC3)ccc21,inconclusive: -57.3%
22,CCOc1ccc(CNCc2c(C(=O)O)n(Cc3ccc(OC)cc3)c3ccccc23)cc1,inconclusive: -55.2%
23,CN(C)S(=O)(=O)c1cccc(NC(=S)N/N=C/c2cc(Br)ccc2O)c1,active: -84.3%

row,SMILES,"activity change, negative = inhibition"
1,OCC1(CCc2ccccc2)CCN(C/C=C/c2ccccc2)CC1,inactive: -4.71%
2,Cc1ccnc(NC(=O)CNC(=O)c2ccc3ccccc3c2)c1,inactive: -18.1%
3,CC1CCn2c(nc3cc(C(=O)NCc4ccc(F)cc4)ccc32)C1 (centres undefined),inactive: -11.6%
4,CC1C(=NO)C(C)C(c2ccccc2)NC1c1ccccc1 (centres undefined),inactive: -5.19%
5,Cc1ccccc1Nc1c(-c2cccnc2)nc2cccc(C)n12,inconclusive: -42.8%
6,COC(=O)c1c(-c2cc(C)ccc2C)csc1NC(=O)C1CC=CCC1C(=O)O (centres undefined),inactive: -13.7%
7,NNC(=O)CSCc1ccc(Cl)cc1Cl,inconclusive: -44.3%
8,CCn1c2ccccc2c2nnc(N3CCN(c4ccc(OC)cc4)CC3)nc21,inactive: -4.37%
9,COc1ccc2c(c1)CC=C1C2CCC2(C)C(=O)C(=NO)CC12 (centres undefined),inconclusive: -45.5%
10,C=CCn1c(SCC(=O)NC2CCCC2)nc2scc(-c3ccco3)c2c1=O,active: -62.3%
11,CCNC(=O)COC(=O)/C=C/c1cccc(F)c1,inactive: 0.801%
12,N#C/C(=C\c1cccc(Oc2ccccc2)c1)C(=O)N1CCOCC1,active: -102%
13,CC(C)(C)c1ccc(OCc2ccc(C(=O)Nc3cccnc3)o2)cc1,active: -63.7%
14,Cc1ccc(C(C2C(=O)CC(C)(C)CC2=O)C2C(=O)CC(C)(C)CC2=O)s1,active: -67.6%
15,Cc1nnc(Sc2cc(NCCO)c([N+](=O)[O-])c3nonc23)s1,active: -82.1%
16,Cc1ccc(C)c(Nc2ncnc3c2cnn3-c2ccc(F)cc2)c1,inconclusive: -40.7%
17,O=C(NCCc1ccc(F)cc1)N[C@@H](Cc1ccccc1)C(=O)O,inactive: 4.36%
18,O=[N+]([O-])c1ccccc1/C=C/C=N/n1c(-c2cc(-c3ccccc3)n[nH]2)n[nH]c1=S,active: -69.4%
19,COc1ccc(-n2ncc(Cl)c(Cl)c2=O)cc1,inactive: -13.7%
20,Cc1ccc(OCC(=O)N(Cc2ccc(N(C)C)cc2)CC2CCCO2)cc1C (centres undefined),inactive: -10.9%
